# Out of some 45,000 compounds screened, about 200 (0.44%) were called active. Another 7% or so got no clear call; they are omitted. Calls come from the whole dose curve; as a rule, active = well fitted activation curve with a large enough effect; inconclusive = small, poorly fitted or top-dose-only effect; inactive = no such curve, though single readings can be large or run the other way. The list shows a part of the results.
# Experiment: qHTS of TDP-43 Inhibitors: NCGC Sytravon Library Screen; note: 0% is about no effect; nearly all actives have a fitted effect of over 55% in size
# Details: yeast TDP-43 toxicity rescue, BacTiter-Glo growth, 24 h; series mostly up to 46.1 µM; growth rescue (activation): at the top concentration
# Method in brief: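 TDP-43-expressing yeast, pregrown in raffinose, seeded at OD600 0.02 in galactose medium with compound for 24 hr at 30 deg C. Growth read by BacTiter-Glo luminescence, so rescue of toxicity appears as activation.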
row,Compound,growth rescue (activation)
1,CCc1ccc(N(C(=O)c2csnn2)C(C(=O)NC2CCCCC2)c2ccncc2)cc1 (centres undefined),inactive: 8.91%
2,Cc1ccc(CNC(=O)CCC2CCCN(C(=O)CCC(F)(F)F)C2)o1 (centres undefined),inactive: 2.4%
3,O=C(c1ccc(N2CCOCC2)cc1[N+](=O)[O-])N1CCOCC1,inactive: -0.814%
4,Nc1ccc(S(=O)(=O)c2ccc(N)c(N)c2)cc1,inactive: 7.74%
5,O=C(Nc1ccncc1)c1ccccc1[N+](=O)[O-],inactive: -3.63%
6,CCCNC(=O)c1cc(C2CCCCN2C(=O)c2ccc(OC)cc2)on1 (centres undefined),inactive: 4.17%
7,CCCCNCc1nc2ccccc2c(=O)[nH]1,inactive: -9.82%
8,C/C(CC(=O)NCc1ccco1)=N\NC(=O)c1ccc(Cl)cc1Cl,inactive: -12%
9,O=C(O)c1ccc(S(=O)(=O)c2ccc3c(c2)C(=O)N(NC(=O)c2ccncc2)C3=O)cc1,inactive: 24.5%
10,COc1ccccc1-n1c(SCC(=O)N(C)C)nnc1-c1ccco1,inactive: -18.2%
11,O=C(COC(=O)/C=C/c1cccs1)Nc1ccc2ccccc2c1,inactive: 24%
12,CCOC(=O)Cc1csc(NC(=O)c2c(O)c3c(n(CC(C)C)c2=O)CCCC3)n1,inactive: 7.61%
13,Cc1ccc(S(=O)(=O)N2CCCCC2)cc1NC(=O)COC(=O)c1ccc(O)cc1,inactive: 5.75%
14,O=C(Nc1ccccc1C(F)(F)F)NC1(C(=O)N2CCOCC2)CCCCC1,inactive: -34.6%
15,CCc1ccccc1NC(=O)c1ccc2c(c1)CCN2S(C)(=O)=O,inactive: -4.08%
16,OC[C@@H]1CN(Cc2ccc(-c3ccccc3)cc2)C[C@H](n2cnc3c(NC4CCCC4)ncnc32)O1,inactive: -1.29%
17,Cc1ccc(-c2csc(N3C(=N)SCC3=O)n2)cc1,inactive: -1.96%
18,Cc1cccc(CSCCNC(=O)c2ccc(CN3CCOCC3)cc2)c1,inactive: 3.27%
19,c1ccc(C2=Nc3cccnc3C(c3ccccc3)=NN2)cc1,inactive: 14.2%
20,CCCCC(=O)NC(c1ccc(N(CC)CC)cc1)c1ccc2cccnc2c1O (centres undefined),inactive: -9.8%
21,COc1cccc2c(=O)cc(C)n(CC(=O)Nc3ccc(Br)cc3)c12,inactive: -0.77%
22,Oc1ccc(/C=N/N2CCN(C3c4ccccc4-c4ccccc43)CC2)c(O)c1,inactive: 2.54%
23,COC(=O)c1nnn(-c2nonc2N)c1CSc1nnc(N)s1,inactive: -9.11%

row,Compound,growth rescue (activation)
1,O=C(N/N=C/c1cccs1)c1cnccn1,inactive: -4.38%
2,O=C(COc1cc(Cl)c(Cl)cc1Cl)N1CCN(c2ccccn2)CC1,inactive: 3.5%
3,CC(=O)Nc1ccc(NC(=O)C(C)OC(=O)CNC(=O)c2sc3ccccc3c2Cl)cc1 (centres undefined),inactive: 3.51%
4,CN(CCOC(=O)c1cccc(Br)c1)C(C)(C)C,inactive: -16.7%
5,Cc1ccc(S(=O)(=O)N2CCCC2)cc1C(=O)N1CCN(Cc2ccccc2)CC1,inactive: -8.23%
6,CC(C)Cn1c(N)cc(=O)n(C)c1=O,inactive: 5.27%
7,CCC(=O)NC(=S)Nc1cccc(NC(=O)c2ccccc2C)c1,inactive: 7.36%
8,CCCCCNS(=O)(=O)c1cc(C)ccc1OC,inactive: 23%
9,O=C(C(=O)N1CCN(c2ccc(F)cc2)CC1)N1CCCCC1,inactive: -13.3%
10,COc1ccc(NC(=O)CCCc2c[nH]c3ccccc23)cc1OC,inactive: -2.96%
11,COc1cc(/C=C/C(=O)OCC(=O)c2c(N)n(C)c(=O)n(C)c2=O)ccc1O,inactive: 2.45%
12,CCOc1ccccc1OCCCC(=O)NCCc1ccc(S(N)(=O)=O)cc1,inactive: -2.82%
13,O=[N+]([O-])c1ccc(C(O)CN2CCN(C/C=C/c3ccccc3)CC2)cc1 (centres undefined),inactive: 12.9%
14,Cc1ccc(S(=O)(=O)N2CCOCC2)cc1NC(=O)COC(=O)Cc1ccsc1,inactive: -7.2%
15,Cc1ccccc1C1N(c2nccs2)C(=O)C2CCCN21 (centres undefined),inactive: 0.416%
16,O=C(NC1CCCCC1)C12CC3CC(CC(Cl)(C3)C1)C2,inactive: 18.4%
17,c1ccc(Cc2nnc(N3CCOCC3)c3ccccc23)cc1,inactive: 12.3%
18,CN=C1NN=C(c2cc(C)n(-c3ccc(Cl)cc3)c2C)CS1,inactive: 8.22%
19,CCn1nc(C)cc1C(=O)N(C)C1CCCN(Cc2ccccc2F)C1 (centres undefined),inactive: 6%
20,NS(=O)(=O)c1ccc(NC(=O)COC(=O)C2CC2)cc1,inactive: 8.56%
21,O=C(CC1CCOCC1)Nc1ccc(Cl)c(Cl)c1,inactive: 4.39%
22,Cc1cc(C)cc(NC(=O)CCn2ccnc2)c1,inactive: 9.8%
23,CCOC(=O)c1ccccc1N1C(=O)C2Sc3[nH]c(=O)sc3C(/C=C/c3ccccc3)C2C1=O (centres undefined),inactive: 16.1%

row,Compound,growth rescue (activation)
1,O=[N+]([O-])c1cc(C(F)(F)F)cc([N+](=O)[O-])c1NCc1cccnc1,inactive: 6.38%
2,COc1ccc2oc(=O)c(-c3csc(Nc4ccc(O)cc4)n3)cc2c1,inactive: -18.9%
3,CC(C)[C@H](NC(=O)c1ccco1)C(=O)NCc1ccccc1,inactive: -8.98%
4,O=C(CCC1CCCCC1)Nc1cccc(C(=O)Nc2ccc(C(=O)O)cc2)c1,inactive: -9.63%
5,Cc1csc(NC(=O)C2CCCN2C(=O)OCC(C)C)n1 (centres undefined),inactive: 7.46%
6,Cc1nc2ccccc2c2c1C(=O)N(c1ccc(C(=O)O)cc1)C2=O,inactive: -8.46%
7,O=C(NCc1cccnc1)c1ccc2c(c1)N(Cc1ccccc1)CCS2,inactive: 12.4%
8,COc1cc(C(O)c2nc(-c3cccc4cccnc34)cs2)ccc1F (centres undefined),inactive: 14.7%
9,Cc1occc1C(=O)NNS(=O)(=O)c1ccc([N+](=O)[O-])cc1,inactive: 14%
10,CCCn1c(SCC(=O)Nc2ccc3c(c2)OCO3)n[nH]c1=O,inactive: 2.43%
11,O=C(NC1CCCCC1)C1CCCN(S(=O)(=O)c2ccc(Br)s2)C1 (centres undefined),inactive: 3.94%
12,COc1ccc(/C=C/C=C2\NC(=S)NC2=O)cc1,inactive: 4.48%
13,COc1ccc(CN2CN(S(=O)(=O)c3cccs3)c3nc4ccccc4nc32)cc1,inactive: 7.87%
14,CCc1nnc(NC(=O)CSc2nc(-c3ccccc3)c(-c3ccccc3)o2)s1,inactive: 11.9%
15,Cc1ccc(Cl)cc1S(=O)(=O)N1CCC(C(=O)NC2CCN(Cc3ccccc3)CC2)CC1,inactive: 5.56%
16,COc1cc(C(=O)NCC(=O)Nc2c(C)cccc2C)ccc1OCC(=O)N1CCOCC1,inactive: 4.43%
17,COc1ccc2nc(C)cc(N3CCN(c4ccccc4)CC3)c2c1,inactive: 3.77%
18,O=C(NCc1ccco1)C1Cc2c(-c3cccc(F)c3)ccnc2O1 (centres undefined),inactive: 23.2%
19,CCCCC(=O)N(C)c1c(CC)nc2c(OCC(=O)c3ccc(Cl)cc3Cl)cccn12,inactive: -5.95%
20,CN(C)c1ccc(C=C2C(=O)OC3(CCCC3)OC2=O)cc1,inactive: -9.93%
21,COc1cc(/C=N/NC(=O)CCN2CCN(C(c3ccccc3)c3ccccc3)CC2)ccc1O,inactive: -10.3%
22,O=C(CCCNC(=O)c1ccc(Cl)cc1)Nc1nccs1,inactive: 2.5%
23,COc1cccc(CC(NC(C)=O)C(=O)NC2CCN(C(=O)c3ccc(Cl)cc3)CC2)c1 (centres undefined),inactive: 5.51%

# Reference: PubChem BioAssay AID1347073 (National Center for Advancing Translational Sciences (NCATS), 2019)
